# About 5,700 (2.6%) of roughly 220,000 compounds were called active. Inconclusive results, whose numbers are uncertain, are shown with a selection of clear calls. The call rests on the fitted dose curve; in most records, active means well fitted inhibition curve with a large enough effect; inconclusive means small, poorly fitted or top-dose-only effect; inactive means no such curve, though single readings can be large or run the other way. Where the call is inconclusive, the potency comes from a doubtful curve fit.
# Molecular target: Lysine-specific demethylase 5B (Homo sapiens) (UniProt Q9UGL1)
# Sequence of UniProt Q9UGL1 (Q9UGL1 whole entry, looked up): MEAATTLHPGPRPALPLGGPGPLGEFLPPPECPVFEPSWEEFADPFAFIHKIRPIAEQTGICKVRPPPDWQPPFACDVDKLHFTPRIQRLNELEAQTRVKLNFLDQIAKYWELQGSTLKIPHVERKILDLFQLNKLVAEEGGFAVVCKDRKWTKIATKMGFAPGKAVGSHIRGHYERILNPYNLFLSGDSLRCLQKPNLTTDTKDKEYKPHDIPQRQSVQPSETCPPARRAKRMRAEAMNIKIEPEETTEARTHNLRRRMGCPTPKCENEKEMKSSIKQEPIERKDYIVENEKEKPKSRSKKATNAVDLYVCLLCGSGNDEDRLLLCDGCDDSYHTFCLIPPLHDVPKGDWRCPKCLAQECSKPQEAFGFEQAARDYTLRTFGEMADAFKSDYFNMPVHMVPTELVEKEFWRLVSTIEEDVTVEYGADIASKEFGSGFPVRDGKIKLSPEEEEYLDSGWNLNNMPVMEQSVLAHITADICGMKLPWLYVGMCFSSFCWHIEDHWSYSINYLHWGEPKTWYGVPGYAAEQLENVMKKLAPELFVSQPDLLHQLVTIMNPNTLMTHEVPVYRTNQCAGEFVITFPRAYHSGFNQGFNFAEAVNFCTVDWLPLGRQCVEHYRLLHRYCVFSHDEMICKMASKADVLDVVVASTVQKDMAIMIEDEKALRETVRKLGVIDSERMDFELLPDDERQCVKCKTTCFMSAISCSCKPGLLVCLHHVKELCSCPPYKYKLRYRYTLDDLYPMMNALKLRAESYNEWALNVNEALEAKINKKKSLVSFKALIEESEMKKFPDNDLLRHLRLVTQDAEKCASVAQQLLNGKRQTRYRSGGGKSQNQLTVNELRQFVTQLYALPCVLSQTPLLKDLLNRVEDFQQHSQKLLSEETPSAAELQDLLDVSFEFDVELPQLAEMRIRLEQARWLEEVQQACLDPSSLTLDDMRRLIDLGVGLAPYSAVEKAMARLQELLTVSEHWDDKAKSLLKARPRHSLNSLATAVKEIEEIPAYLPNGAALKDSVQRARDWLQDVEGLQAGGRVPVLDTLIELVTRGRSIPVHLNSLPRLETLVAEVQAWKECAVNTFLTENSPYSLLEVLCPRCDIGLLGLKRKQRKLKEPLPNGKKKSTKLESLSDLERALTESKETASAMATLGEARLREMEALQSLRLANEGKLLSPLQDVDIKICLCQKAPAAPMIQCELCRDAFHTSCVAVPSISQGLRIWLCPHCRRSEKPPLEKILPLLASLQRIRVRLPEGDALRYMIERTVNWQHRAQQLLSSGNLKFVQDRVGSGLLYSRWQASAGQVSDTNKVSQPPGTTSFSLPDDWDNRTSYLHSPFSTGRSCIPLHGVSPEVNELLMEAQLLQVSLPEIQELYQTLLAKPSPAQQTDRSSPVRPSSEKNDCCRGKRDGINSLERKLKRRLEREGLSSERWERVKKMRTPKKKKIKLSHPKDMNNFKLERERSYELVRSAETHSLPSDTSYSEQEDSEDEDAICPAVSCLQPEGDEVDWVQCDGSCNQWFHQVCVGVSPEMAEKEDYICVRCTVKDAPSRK
# Assay: Primary screen for KDM5B Histone Demethylases FDH-coupled qHTS; further: nearly all actives have a fitted effect of over 70% in size; on activity change, negative = inhibition: 0% is about no effect
# Details: FDH-coupled NADH fluorescence (FDH is formaldehyde dehydrogenase); activity change, negative = inhibition: at 57.7 µM (top of the series) unless noted
# In short: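 Inhibition is measured as reduced NADH fluorescence generation from FDH coupling to formaldehyde release. Truncated KDM5BΔAP at 200 nM final acts on H3K4me3 peptide (12.5 µM in substrate mix) in pH 7.5 HEPES buffer with Tween-20, 30 min, room temperature.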
# Potency means the concentration at half of the fitted maximal effect; tags describe the fitted curve by direction and shape.
SMILES,Potency,"activity change, negative = inhibition"
CCOc1ccc(C2C(C(=O)OC)=C(C)NC3=C2C(=O)c2ccccc23)cc1OC (stereo not given),"inconclusive: 15.8 µM [inhibitor, partial curve, poor fit]",–
CN1CCN(C)C2(CCN(C(=O)c3cn4cc(Cl)ccc4n3)CC2)C1,"inconclusive: 35.5 µM [inhibitor, partial curve, poor fit]",–
O=C(Nc1ccc(F)cc1Cl)C1CCN(c2ncnc3c2nc2n3CCCCC2)CC1,–,inconclusive: -58.3% [inhibitor] [at 11.5 µM]
CC(NC(=O)Cn1c(=O)c2c(ncn2C2CCCC2)n(Cc2ccccc2)c1=O)c1cccs1 (stereo not given),inactive,–
C[C@@H](Nc1ccc(-c2nc(CCCc3ccccc3)no2)cn1)C(N)=O,"inconclusive: 20 µM [inhibitor, partial curve, poor fit]",–
COC(=O)c1c(-c2ccc(F)cc2)csc1NC(=O)CN1CCN(c2ccccc2)CC1,inactive,–
COc1ccc(OC)c(C(C)NC(=O)CCc2c(C)c3ccc(OC)cc3oc2=O)c1 (stereo not given),"inconclusive: 39.8 µM [inhibitor, single point]",–
CNCc1ccc(-c2ccc(C(=O)OC)cc2)o1,inactive,–
CC(=O)N1C[C@@H]2CCCN3CCC[C@@H]([C@H]23)[C@H]1CCCC(=O)NCCN(C)C1CCCCC1,"inconclusive: 25.1 µM [inhibitor, single point]",–
CC(C)CNc1ncnc2c1CN(C1CNC1)C(=O)CN2C,"inconclusive: 15.8 µM [inhibitor, full curve]",–
Cc1ccc(-c2cn3c(n2)CO[C@@H](CNC(=O)c2ccc(Cl)cc2)C3)cc1,"inconclusive: 31.6 µM [inhibitor, partial curve]",–
O=C(C[C@H]1NC(=O)c2ccccc2NC1=O)Nc1nc(-c2cccs2)cs1,"inconclusive: 25.1 µM [inhibitor, partial curve]",–
CC/C(=N/NC(=O)c1ccc2c(c1)OCO2)c1ccccc1O,"inconclusive: 22.4 µM [inhibitor, partial curve, poor fit]",–
Cc1c(-c2cccc(NC(=O)c3ccc(F)c(F)c3)c2)nc2ncccn12,"inconclusive: 15.8 µM [inhibitor, partial curve, poor fit]",–
C[S+](=O)([O-])N1CCC2(CC(=O)Nc3ccccc3N2)C1 (stereo not given),"inconclusive: 63.1 µM [inhibitor, partial curve, poor fit]",–
Cc1nn(C)c2c1c(C(F)(F)F)cc(=O)n2C(C)C(=O)NCCc1ccc(Cl)cc1 (stereo not given),"inconclusive: 12.6 µM [inhibitor, partial curve, poor fit]",–
O=C(c1ccc(Cl)nc1)N1CCCN(c2nc3ncccc3o2)CC1,inactive,–
Cc1[nH]c2ccc(C(=O)Nc3ccc(-c4nccs4)cc3)cc2c1C,"inconclusive: 25.1 µM [inhibitor, partial curve, poor fit]",–
N#Cc1c(Nc2ccccc2)ccnc1NCc1ccccc1,"inconclusive: 39.8 µM [inhibitor, single point]",–
N#CCCN(CCC#N)C(=O)COc1cc(Cl)ccc1C(N)=O,inactive,–
O=C(NCc1nnc2ccc(-c3ccc(F)cc3)nn12)c1ccc(F)cc1Cl,"inconclusive: 31.6 µM [inhibitor, partial curve, poor fit]",–
CCC1(C(=O)N2CCc3ccccc3C2)CCCCC(=O)N1 (stereo not given),"inconclusive: 39.8 µM [inhibitor, single point]",–

SMILES,Potency,"activity change, negative = inhibition"
CN1CCC(N2CC[C@@H]3[C@H]2C(=O)NC[C@H](CCC(=O)N2CCN(C)CC2)N3C)CC1,"inconclusive: 22.4 µM [inhibitor, partial curve, poor fit]",–
O=C1CO[C@H]2CCN(Cc3ccccc3Cl)CC[C@@H]2N1CCc1cccnc1,"inconclusive: 11.2 µM [inhibitor, partial curve, poor fit]",–
Cn1cc(-c2ccccc2)c2nc(COc3ccc(Cl)cc3)cn2c1=O,"inconclusive: 39.8 µM [inhibitor, single point]",–
Cc1cc(=O)oc2cc(OCc3nc(C(C)(C)C)no3)ccc12,"inconclusive: 17.8 µM [inhibitor, partial curve, poor fit]",–
COc1ccc(N2CCN(c3nc(C(=O)NC4CC4)cs3)CC2)cc1,inactive,–
COc1ccccc1-n1c(SCC(=O)Nc2ccc(NC(C)=O)cc2)nc2c([nH]c3ccccc32)c1=O,"inconclusive: 31.6 µM [inhibitor, single point]",–
CCc1nc(CN2CCOC(c3ccc4cc(OC)ccc4c3)C2)no1 (stereo not given),"inconclusive: 20 µM [inhibitor, single point]",–
O=C(C1CCCC1)N1CCC(C(=O)N2CCCN(Cc3cccnc3)CC2)CC1,"inconclusive: 12.6 µM [inhibitor, partial curve, poor fit]",–
O=C(CCc1ccnc(N2CCCC2)c1)NCc1cccc(Cl)c1,"inconclusive: 20 µM [inhibitor, partial curve]",–
CC(C)c1ccccc1NC(=O)/C=C/c1ccc(F)cc1,inactive,–
COC(=O)CCOc1ccc(S(=O)(=O)Nc2c(F)cccc2F)cc1,inactive,–
CCOC(=O)C1CCN(C(=O)Cc2ccc(N(Cc3cccc(F)c3)C(=O)c3ccco3)cc2)CC1,"inconclusive: 35.5 µM [inhibitor, partial curve, poor fit]",–
COC(=O)[C@@H]1Cc2ncn(C(C)C)c2CN1S(=O)(=O)Cc1ccccc1,"inconclusive: 56.2 µM [inhibitor, single point]",–
CCn1nc(C(=O)N(Cc2ccc(OC)cc2)C(C)Cc2cccs2)c2ccccc2c1=O (stereo not given),inactive,–
O=C(c1cccnc1)N1CCC2(CCCN(C3CCOCC3)C2=O)C1 (stereo not given),inactive,–
N#CC(C(=O)C(F)(F)F)c1ccccc1 (stereo not given),inactive,–
Cc1ccc(OCc2ccc(-c3nc(C#N)c(NCCCN(C)C)o3)o2)cc1,"inconclusive: 28.2 µM [inhibitor, partial curve, poor fit]",–
COc1ccc(-c2noc(CN(C(=O)Nc3cccc4ccccc34)C(C)C)n2)cc1,"inconclusive: 22.4 µM [inhibitor, partial curve, poor fit]",–
O=C(CN1CCN(S(=O)(=O)Cc2ccccc2)CC1)Nc1ccc(F)c(F)c1,inactive,–
CCCCCC(=O)N1CC[C@@H](CC(=O)O)[C@@H](CC2=NCCc3cc(OC)ccc32)C1,"inconclusive: 31.6 µM [inhibitor, single point]",–
CCN(CC)CCNCC1C(=O)O[C@@H]2C[C@@]3(C)CCC[C@H](C)C3=C[C@H]12 (stereo not given in full),"inconclusive: 39.8 µM [inhibitor, single point]",–
Cc1nn2c(c1-c1cccnc1N1CCOCC1)N(CCc1ccccc1)CCC2,"inconclusive: 35.5 µM [inhibitor, partial curve]",–

SMILES,Potency,"activity change, negative = inhibition"
COc1ccccc1CCNC(=O)[C@@H]1CNC[C@H]1COc1cccnc1,"inconclusive: 10 µM [inhibitor, partial curve]",–
CCOC(=O)Cn1c(=O)n(Cc2ccccc2)c(=O)c2cccnc21,"inconclusive: 31.6 µM [inhibitor, single point]",–
CC(=O)Nc1cccc(-c2cc(-c3c(C)noc3C)c3cncn3c2)c1,active: 39.8 µM,–
Cn1cccc1CN1CCC2(CC1)CNC(=O)c1ccccc1O2,"inconclusive: 79.4 µM [inhibitor, partial curve]",–
CC(NC(=O)c1ccc2cccc(F)c2n1)c1ccccc1-n1cccn1 (stereo not given),"inconclusive: 25.1 µM [inhibitor, partial curve, poor fit]",–
CCc1nc(C)sc1CNC(=O)[C@H]1CNC[C@H](C(=O)N2CCCC2)C1,inactive,–
CCc1ccc(C(c2ccccc2)c2c[nH]c3ccc(C)cc23)s1 (stereo not given),"inconclusive: 28.2 µM [inhibitor, partial curve, poor fit]",–
Cc1ccc2c(C(=O)NCc3ccc(Cl)cc3Cl)cnn2c1,"inconclusive: 10 µM [inhibitor, partial curve, poor fit]",–
O=C1CCN(C(=O)c2cccc3[nH]ccc23)CCCC(C(=O)NCc2ccccc2)CCN1 (stereo not given),"inconclusive: 20 µM [inhibitor, partial curve, poor fit]",–
CCOc1ccccc1C(=O)Nc1cc(C)ccn1,"inconclusive: 25.1 µM [inhibitor, single point]",–
Cc1ccc(Cl)c(C(=O)N2CCC(=O)N(CC3CC3)C(C(C)C)C2)c1 (stereo not given),inactive,–
CC(C)CNC(=O)CN1CCN(c2nc(-c3cccs3)nc3ccccc23)CC1,inactive,–
O=C(N[C@H]1[C@H]2CCO[C@H]2[C@@H]1N1CCCC1)c1ccc(-c2cccc(F)c2)cc1,"inconclusive: 17.8 µM [inhibitor, single point]",–
CN(C)C(=O)c1c(NC(=O)c2ccccc2F)sc2c1CCC(C(C)(C)C)C2 (stereo not given),"inconclusive: 31.6 µM [inhibitor, single point]",–
CCN1CCN(CC(=O)c2c(C)[nH]c3cc(C)ccc23)CC1,inactive,–
O=C1c2ccccc2NC(c2csc(-c3ccccc3)n2)N1C1CC1 (stereo not given),inactive,–
c1cn(CCCN2CCCC2)c(-c2cc3n(n2)CCCNC3)n1,"inconclusive: 17.8 µM [inhibitor, partial curve, poor fit]",–
CCN1CCN(c2ncc3c(n2)CCN(Cc2sccc2C)C3)CC1,"inconclusive: 25.1 µM [inhibitor, single point]",–
COCCN1Cc2cccc(C(=O)Nc3ccccc3C(=O)OC)c2C1=O,inactive,–
CCOc1ccc(Nc2nc(C)c(NC(=O)c3ccc(C)cc3)c(Nc3ccc(OCC)cc3)n2)cc1,"inconclusive: 14.1 µM [inhibitor, partial curve, poor fit]",–
COCCNC(=O)NC(=O)CSc1nc(-c2ccco2)nc2ccccc12,"inconclusive: 10 µM [inhibitor, partial curve, poor fit]",–
